The list shows a part of the results.
Biological target: T1, MBP-FoxP1dN (Mus musculus, UniProt P58462 326-579)
T1 sequence: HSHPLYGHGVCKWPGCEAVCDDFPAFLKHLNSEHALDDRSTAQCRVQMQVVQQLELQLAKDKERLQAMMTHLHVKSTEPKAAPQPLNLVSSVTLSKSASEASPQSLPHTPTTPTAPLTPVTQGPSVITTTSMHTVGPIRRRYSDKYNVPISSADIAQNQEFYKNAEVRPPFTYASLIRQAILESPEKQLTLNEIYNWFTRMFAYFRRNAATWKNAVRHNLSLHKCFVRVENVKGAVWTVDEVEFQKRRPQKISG
Test: PD-seq (MBP pull-down with sequencing); 20 mM Tris-HCl pH 7.5, 100 mM NaCl, 1.5 mM MgCl2, 0.4 uM protein, 0.1 uM dsDNA library, 30 min, room temperature, amylose pull-down; high values mean tight binding
Conditions: protein: recombinant; tags: His6-MBP; chain copies: 2; dsDNA, one strand shown
Summary of the method: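 E. coli-expressed mouse FoxP3 or FoxP1 fragment, N-terminus removed and tagged with His6-MBP, was used at 0.4 µM against 0.1 µM of a Klenow-filled degenerate double-stranded DNA library. After 30 min at room temperature in Tris pH 7.5 buffer with NaCl and MgCl2, complexes were pulled down on amylose resin and washed three times. Binding is pull-down over input reads-per-million enrichment from pooled replicates of the proteinase K-released, PCR-barcoded, Illumina-sequenced DNA.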

Sequence | binding signal
GATGATTGTTCTCCCAGCTGATGAATTTACGCTATCGAGTAAACAAATTTTCCTAATCTTTCTGTTCAAGCGCCATCTAC | 1.23 RPM ratio (pull-down/input)
GATGATTGTTCTCCCAGCTGATGAATTTAGTGCATCGAGTAAACAAATTTTCCTAATCTTTCTGTTCAAGCGCCATCTAC | 1.5 RPM ratio (pull-down/input)
GATGATTGTTCTCCCAGCTGATGAATTAGAGTCATCGAGTAAACAAATTTTCCTAATCTTTCTGTTCAAGCGCCATCTAC | 0.903 RPM ratio (pull-down/input)
GATGATTGTTCTCCCAGCTGATGAATTATGCACGTCGAGTAAACAAATTTTCCTAATCTTTCTGTTCAAGCGCCATCTAC | 1.07 RPM ratio (pull-down/input)
GATGATTGTTCTCCCAGCTGATGAATTCTTCTTCTCGAGTAAACAAATTTTCCTAATCTTTCTGTTCAAGCGCCATCTAC | 0.819 RPM ratio (pull-down/input)
GATGATTGTTCTCCCAGCTGATGAATTTTCAGCCTCGAGTAAACAAATTTTCCTAATCTTTCTGTTCAAGCGCCATCTAC | 0.815 RPM ratio (pull-down/input)
GATGATTGTTCTCCCAGCTGATGAATTTAATTTTTCGAGTAAACAAATTTTCCTAATCTTTCTGTTCAAGCGCCATCTAC | 0.972 RPM ratio (pull-down/input)
GATGATTGTTCTCCCAGCTGATGAATTAGACTGATCGAGTAAACAAATTTTCCTAATCTTTCTGTTCAAGCGCCATCTAC | 0.851 RPM ratio (pull-down/input)
GATGATTGTTCTCCCAGCTGATGAATTCTTAATTTCGAGTAAACAAATTTTCCTAATCTTTCTGTTCAAGCGCCATCTAC | 1.1 RPM ratio (pull-down/input)
GATGATTGTTCTCCCAGCTGATGAATTATTTACTTCGAGTAAACAAATTTTCCTAATCTTTCTGTTCAAGCGCCATCTAC | 2.15 RPM ratio (pull-down/input)
GATGATTGTTCTCCCAGCTGATGAATTGAATGGCTCGAGTAAACAAATTTTCCTAATCTTTCTGTTCAAGCGCCATCTAC | 0.823 RPM ratio (pull-down/input)
GATGATTGTTCTCCCAGCTGATGAATTGTCTTAGTCGAGTAAACAAATTTTCCTAATCTTTCTGTTCAAGCGCCATCTAC | 1.09 RPM ratio (pull-down/input)
GATGATTGTTCTCCCAGCTGATGAATTTGAACGGTCGAGTAAACAAATTTTCCTAATCTTTCTGTTCAAGCGCCATCTAC | 0.856 RPM ratio (pull-down/input)
GATGATTGTTCTCCCAGCTGATGAATTTTACTGGTCGAGTAAACAAATTTTCCTAATCTTTCTGTTCAAGCGCCATCTAC | 0.796 RPM ratio (pull-down/input)
GATGATTGTTCTCCCAGCTGATGAATTGAGTAGCTCGAGTAAACAAATTTTCCTAATCTTTCTGTTCAAGCGCCATCTAC | 0.83 RPM ratio (pull-down/input)
GATGATTGTTCTCCCAGCTGATGAATTCGGTAGCTCGAGTAAACAAATTTTCCTAATCTTTCTGTTCAAGCGCCATCTAC | 0.783 RPM ratio (pull-down/input)

Sequence | binding signal
GATGATTGTTCTCCCAGCTGATGAATTTCTAGCATCGAGTAAACAAATTTTCCTAATCTTTCTGTTCAAGCGCCATCTAC | 1.06 RPM ratio (pull-down/input)
GATGATTGTTCTCCCAGCTGATGAATTTAAGCATTCGAGTAAACAAATTTTCCTAATCTTTCTGTTCAAGCGCCATCTAC | 1.14 RPM ratio (pull-down/input)
GATGATTGTTCTCCCAGCTGATGAATTTGGAAGCTCGAGTAAACAAATTTTCCTAATCTTTCTGTTCAAGCGCCATCTAC | 0.812 RPM ratio (pull-down/input)
GATGATTGTTCTCCCAGCTGATGAATTACTGTCGTCGAGTAAACAAATTTTCCTAATCTTTCTGTTCAAGCGCCATCTAC | 1.07 RPM ratio (pull-down/input)
GATGATTGTTCTCCCAGCTGATGAATTCTAGTGATCGAGTAAACAAATTTTCCTAATCTTTCTGTTCAAGCGCCATCTAC | 0.942 RPM ratio (pull-down/input)
GATGATTGTTCTCCCAGCTGATGAATTTTTGGTTTCGAGTAAACAAATTTTCCTAATCTTTCTGTTCAAGCGCCATCTAC | 0.984 RPM ratio (pull-down/input)
GATGATTGTTCTCCCAGCTGATGAATTGGAAGTATCGAGTAAACAAATTTTCCTAATCTTTCTGTTCAAGCGCCATCTAC | 0.972 RPM ratio (pull-down/input)
GATGATTGTTCTCCCAGCTGATGAATTCACAAATTCGAGTAAACAAATTTTCCTAATCTTTCTGTTCAAGCGCCATCTAC | 1.01 RPM ratio (pull-down/input)
GATGATTGTTCTCCCAGCTGATGAATTGGCTCTTTCGAGTAAACAAATTTTCCTAATCTTTCTGTTCAAGCGCCATCTAC | 0.951 RPM ratio (pull-down/input)
GATGATTGTTCTCCCAGCTGATGAATTTTGTTTATCGAGTAAACAAATTTTCCTAATCTTTCTGTTCAAGCGCCATCTAC | 2.61 RPM ratio (pull-down/input)
GATGATTGTTCTCCCAGCTGATGAATTTATATACTCGAGTAAACAAATTTTCCTAATCTTTCTGTTCAAGCGCCATCTAC | 1.16 RPM ratio (pull-down/input)
GATGATTGTTCTCCCAGCTGATGAATTGCGGAATTCGAGTAAACAAATTTTCCTAATCTTTCTGTTCAAGCGCCATCTAC | 1.1 RPM ratio (pull-down/input)
GATGATTGTTCTCCCAGCTGATGAATTGCGCCGGTCGAGTAAACAAATTTTCCTAATCTTTCTGTTCAAGCGCCATCTAC | 0.953 RPM ratio (pull-down/input)
GATGATTGTTCTCCCAGCTGATGAATTTGGCTGATCGAGTAAACAAATTTTCCTAATCTTTCTGTTCAAGCGCCATCTAC | 0.876 RPM ratio (pull-down/input)
GATGATTGTTCTCCCAGCTGATGAATTAATACCATCGAGTAAACAAATTTTCCTAATCTTTCTGTTCAAGCGCCATCTAC | 1.11 RPM ratio (pull-down/input)

From publication PMC12820563, “FoxP3 forms a head-to-head dimer in vivo and stabilizes its multimerization on adjacent microsatellites”
